Test results reported in PubChem BioAssay AID1345083 (National Center for Advancing Translational Sciences (NCATS), 2018).
Several values for one entry are separate records, joined by “and”; a condition that tells them apart may be missing. Identical values can stand only once. About 6,200 (6.6%) of roughly 94,000 compounds were called active. This list was built around the results that the source calls inconclusive (neither active nor inactive); the mix of calls is not that of the screen. Calls come from the whole dose curve; as a rule, active = well fitted inhibition curve with a large enough effect; inconclusive = small, poorly fitted or top-dose-only effect; inactive = flat fitted curve, though single readings scatter. Where the call is inconclusive, the potency comes from a doubtful curve fit.

assay: Cytotoxic Profiling in HEK 293 Cell Line of Diverse Libraries Using Quantitative High-Throughput Screening; settings: HEK 293 viability, ATP luminescence (CellTiter-Glo), 48-72 h; activity change, negative = cytotoxicity: at 115 µM (top of the series) unless noted; series mostly up to 115 µM; note: nearly all actives have a fitted effect of over 60% in size
In short: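 HEK 293 seeded at 250 cells/well receive compound via pintool. After 48 or 72 hr at 37 degree Celsius, 5% CO2 and 95% humidity, CellTiter-Glo is dispensed and luminescence read following 10 min at room temperature.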
% is set by controls: 0 for no effect and ±100 for the full control effect; potency is the fitted concentration of half-maximal effect; tags give direction and shape of the fitted curve.

Row | SMILES | Potency | outcome | activity change, negative = cytotoxicity
1 | Cn1cc(-c2cnc(Nc3ccc(F)cc3)c3c2CCO3)cn1 | inconclusive: 89.1 µM [inhibitor, partial curve] | – | –
2 | CCC1Oc2ccc(NC(=O)Cc3ccc(F)cc3)cc2CN(Cc2ccc(OC)cc2)C1=O (stereo not given) | inconclusive: 35.5 µM [inhibitor, full curve, poor fit] | – | –
3 | CCc1ccc(C(=O)N2CCC(Oc3ccc(C(=O)N(C)C)cn3)CC2)cc1 | inconclusive: 89.1 µM [inhibitor, single point] | – | –
4 | COCCNC(=O)c1nc(-c2ccccc2OC)c2cnccn12 | inconclusive: 112 µM [inhibitor, partial curve, poor fit] | – | –
5 | COc1ccc(Nc2ccnc(N3CCC(C(=O)N4CCC(c5ccccc5)CC4)CC3)n2)cc1 | active: 12.6 µM | – | –
6 | COCCN1Cc2nc(-c3cnn(Cc4ccccc4)c3)ccc2OCC1=O | inconclusive: 112 µM [inhibitor, partial curve] | – | –
7 | Cc1ccc(C(=O)N2CCC3(CC2)CC(N(Cc2ccc(F)cc2)C2CC2)CCO3)cc1 (stereo not given) | inconclusive: 50.1 µM [inhibitor, partial curve, poor fit] | – | –
8 | O=C(NC1CCN(c2ccc3nnc(-c4ccccc4)n3n2)C1)C1CCCC1 (stereo not given) | – | inactive | –
9 | COc1ccc(CN2CCN3C(=O)N(c4ccccc4)C[C@H]3C2)cn1 | – | – | inactive: -19.4% [at 172 µM]
10 | CCc1noc([C@@H]2CC(F)(F)CN2C(=O)CCn2cccn2)n1 | – | – | inactive: -5.41%
11 | COC(=O)[C@@H]1Cc2ncn(Cc3ccc(OC)cc3)c2CN1S(=O)(=O)c1cccc2c(N(C)C)cccc12 | inconclusive: 50.1 µM [inhibitor, partial curve] | – | –
12 | CNC(=O)c1cc(C)nc2onc(C3CCN(C(=O)c4ccccc4C)CC3)c12 | – | – | inactive: -26.8%
13 | CN(C)C(=O)C1CCc2nnc(-c3ccc(F)cc3)n21 (stereo not given) | – | – | inactive: 3.9% [at 172 µM]
14 | CCCCN1CCN(C(=O)C2(c3ccc(NC(=O)C(C)C)cc3)CCCCC2)CC1 | – | – | inactive: 7.93%
15 | Cc1ccc(C(=O)NC2CCN(Cc3cccc(-c4cccs4)c3)CC2)cc1 | inconclusive: 10 µM [inhibitor, full curve, poor fit] and inconclusive: 44.7 µM [inhibitor, partial curve] | – | –
16 | Cc1cc(C)c(CNC(=O)c2nc(Nc3ccccc3)cc3[nH]ccc23)c(=O)[nH]1 | inconclusive: 100 µM [inhibitor, partial curve, poor fit] | – | –
17 | O=C(Cn1ccn2nc3c(c2c1=O)CCCCC3)Nc1ccc(F)c(F)c1 | inconclusive: 89.1 µM [inhibitor, single point] | – | –
18 | O=C(Nc1ccc2ncnc(N3CCCCC3)c2c1)c1ccc(F)c(F)c1 | active: 44.7 µM | – | –
19 | CCOC(=O)C(Cc1cccc(N2CCN([S+](=O)([O-])c3ccccc3F)CC2)c1)OC (stereo not given) | inconclusive: 50.1 µM [inhibitor, partial curve, poor fit] | – | –
20 | CCOC(=O)C1CCN(C(=O)C2COC3(CCC(C)CC3)N2C(=O)c2cccc(F)c2)CC1 (stereo not given) | – | – | inactive: -21.8%
21 | O=c1cc(-c2ccccn2)oc2c(Nc3ccccc3)nccc12 | inconclusive: 50.1 µM [inhibitor, partial curve, poor fit] | – | –
22 | COCCN1CC(CO)C2(CCN(Cc3ccc(F)c(Cl)c3)CC2)C1 (stereo not given) | inconclusive: 44.7 µM [inhibitor, partial curve, poor fit] | – | –

Row | SMILES | Potency | outcome | activity change, negative = cytotoxicity
23 | COCCNC(=O)c1nc(-c2ccc([S+](C)(=O)[O-])cc2)c2ccccn12 | inconclusive: 89.1 µM [inhibitor, single point] | – | –
24 | OC1CC(c2cc(NCCc3nc(Cc4ccccc4)no3)ncn2)C1 (stereo not given) | inconclusive: 56.2 µM [inhibitor, partial curve, poor fit] | – | –
25 | CCCC1CCCN1C(=O)c1coc(COc2ccc3ccc(OC)cc3c2)n1 (stereo not given) | inconclusive: 50.1 µM [inhibitor, partial curve, poor fit] | – | –
26 | COc1ccccc1C(=O)N1CCCn2nc(C)c(-c3ccccc3C(C)C)c21 | active: 89.1 µM | – | –
27 | COC(=O)C1=C(C)NC(=O)NC1c1ccc(C(C)C)cc1 (stereo not given) | inconclusive: 31.6 µM [inhibitor, full curve, poor fit] | – | –
28 | COc1ccc(C(=O)N2CCCc3nc(C)nc(-c4ccc(O)cc4)c3C2)cc1 | inconclusive: 79.4 µM [inhibitor, single point] | – | –
29 | COc1ccc2nc([C@H]3CCN(Cc4cccnc4)C3)[nH]c2c1 | – | – | inactive: -0.504% [at 172 µM]
30 | COC1C(=O)N(c2cccc(F)c2)C12CCN(Cc1sccc1C)CC2 (stereo not given) | inconclusive: 35.5 µM [inhibitor, partial curve, poor fit] | – | –
31 | c1coc(CN2CC(Oc3ccc(-c4noc(-c5ccncc5)n4)cc3)C2)c1 | active: 17.8 µM | – | –
32 | Cc1ccccc1-c1nc(N2CCOCC2)cc2c1CN(CC1CC1)C2=O | inconclusive: 100 µM [inhibitor, partial curve, poor fit] | – | –
33 | O=C(C1CCCN1C(=O)c1ccc(C(F)(F)F)cc1)N1CCC(N2CCCC2=O)CC1 (stereo not given) | – | – | inactive: -0.635%
34 | O=C(Nc1ccccc1)N1CCC2(CCCCO2)CC1 | inconclusive: 89.1 µM [inhibitor, single point] | – | –
35 | COc1cncc(Nc2ncc(-c3cccnc3)c3c2OCC3)c1 | inconclusive: 100 µM [inhibitor, partial curve, poor fit] | – | –
36 | CC(C)C[C@@H]1N[C@H](C(=O)NCCCN2CCCC2=O)Cc2c[nH]c3cccc1c23 | inconclusive: 126 µM [inhibitor, single point] | – | –
37 | O=C(COc1ccccc1)N[C@H]1CO[C@H]2[C@@H]1OC[C@H]2OC(=O)Nc1ccccc1 | inconclusive: 126 µM [inhibitor, single point] | – | –
38 | COCCN1C[C@H]2COc3ccc(C)cc3[C@H]2N(C(=O)CC(C)C)CCC1=O | inconclusive: 50.1 µM [inhibitor, partial curve, poor fit] | – | –
39 | CNC(=O)N1CCC(Cc2ncc(C)n2C2CC2)C1 (stereo not given) | – | – | inactive: 1.15%
40 | O=C(NCc1ccc(F)cc1)c1cc(C2CC2)nc2onc(C3CCCNC3)c12 (stereo not given) | inconclusive: 79.4 µM [inhibitor, partial curve, poor fit] | – | –
41 | CC(C)Cn1ccc2c(NC(=O)C[C@H]3NC(=O)c4ccccc4NC3=O)cccc21 | inconclusive: 39.8 µM [inhibitor, partial curve, poor fit] | – | –
42 | COc1ccc(NC(=O)CC2CCCN(c3cnn(CC4CC4)c(=O)c3)C2)cc1 (stereo not given) | inconclusive: 39.8 µM [inhibitor, full curve, poor fit] | – | –
43 | Cc1nn(-c2ccccc2)c2c1C(C1CC1)N(C1CN(C(=O)c3cccnc3)C1)C2=O (stereo not given) | inconclusive: 56.2 µM [inhibitor, partial curve, poor fit] | – | –
44 | CNC(=O)C1CN(c2cccc(OC)c2)C(=O)N1 (stereo not given) | – | – | inactive: 1.64% [at 172 µM]

Row | SMILES | Potency | outcome | activity change, negative = cytotoxicity
45 | COc1ccccc1CN1CC2(C1)C(=O)N(Cc1ccccc1)C(=O)[C@@H]1C[C@@H](O)CN12 | – | inactive [at 172 µM] | –
46 | CCCN(C)C(=O)c1cn2cc(-c3cccc(Cl)c3)n(CC=C(C)C)c(=O)c2n1 | active: 28.2 µM | – | –
47 | N#Cc1ccc(CN2C[C@@H](CO)[C@H](c3ccccn3)C2)cc1 | – | – | inactive: -8.39%
48 | CCOc1ccccc1C(=O)N1CCC(N2C(=O)CCC2C(=O)NCc2ccccc2)CC1 (stereo not given) | – | – | inactive: -7.55%
49 | Cc1nsc(NC(=O)N2CCC(C(C)O)CC2)n1 (stereo not given) | – | – | inactive: -4.32%
50 | COC(=O)c1ccc(COC(=O)C2=CN(C)S(=O)(=O)N=C2C)o1 | – | – | inactive: -29.9%
51 | CCOc1ccc(CC(=O)N2CCCN(c3cc(-c4ccc(F)cc4)[nH]n3)CC2)cc1OCC | inconclusive: 56.2 µM [inhibitor, partial curve, poor fit] | – | –
52 | O=C(NCc1cc2n(n1)CCNC2)C1CCCN(c2ccccn2)C1 (stereo not given) | – | – | inactive: 1.96%
53 | Cc1cc(C[C@@H]2COC[C@@H]2NC(=O)c2ccc3nc(C)sc3c2)on1 | – | – | inactive: 4.66%
54 | CN(Cc1ccc(OC(F)(F)F)cc1)C1CCOc2ccccc21 (stereo not given) | inconclusive: 100 µM [inhibitor, partial curve, poor fit] | – | –
55 | CC(C)(O)CCc1cccc(C(=O)N2CCN(CC3CCCC3)CC2)c1 | – | – | inactive: -10.9%
56 | Cc1cc(C)n(CCC(=O)NC2CCCN(c3cc(-c4ccc(Cl)cc4)[nH]n3)C2)n1 (stereo not given) | inconclusive: 44.7 µM [inhibitor, partial curve, poor fit] | – | –
57 | Cc1noc(C)c1[S+](=O)([O-])N1CCc2nc(C(C)C)nc(-c3ccc(Cl)cc3)c2C1 | inconclusive: 79.4 µM [inhibitor, partial curve, poor fit] | – | –
58 | Cc1nc2c(c(-c3ccc(O)cc3)n1)CN(C(=O)c1ccc(F)cc1)CC2 | inconclusive: 79.4 µM [inhibitor, single point] | – | –
59 | O=C(NCCc1ccccc1)c1cn2cc(-c3cccc(C(F)(F)F)c3)sc2n1 | inconclusive: 50.1 µM [inhibitor, partial curve, poor fit] | – | –
60 | O=C(NCCC1CCN(C(=O)Nc2ccccc2F)CC1)c1ccccc1F | inconclusive: 31.6 µM [inhibitor, partial curve, poor fit] | – | –
61 | COc1ccc(Nc2cnc3ccc(-c4ccccc4OC)nn23)cc1OC | inconclusive: 50.1 µM [inhibitor, partial curve, poor fit] | – | –
62 | CC(=O)Nc1ccc(NC(=O)Cn2c(C)cc3nc4n(c(=O)c32)CCCCC4)cc1 | – | – | inactive: 11.2%
63 | COc1ccc(CN2C[C@@H]3C[C@@H](C(N)=O)N(C(=O)CC4CCCC4)c4cccc(c43)C2=O)cc1 | inconclusive: 35.5 µM [inhibitor, partial curve, poor fit] | – | –
64 | Cc1ccc(C(=O)N2CCCC(C(=O)N3CCC(c4nc5ncccc5[nH]4)CC3)C2)cc1 (stereo not given) | – | – | inactive: -0.29%
65 | COc1ccc(Cl)cc1NC(=O)CCC1CCCN(C(=O)c2ccoc2C)C1 (stereo not given) | active: 31.6 µM | – | –
